In PubChem BioAssay AID1347041 (National Center for Advancing Translational Sciences (NCATS), 2019):
About 740 (0.15%) of roughly 480,000 compounds were called active. The inconclusive results got no clear call from the source; some entries with a clear call stand among them for comparison. Cut-off read from the data, not from the text of the source: active = activity change below about -30%; inconclusive = mostly about -25% to -30%; inactive = weaker than that.

target: L-lactate dehydrogenase A chain (Homo sapiens) (UniProt P00338); assay: qHTS assay for inhibitors of human lactate dehydrogenase; details: purified LDHA, NADH/diaphorase-resazurin fluorescence; active compounds read low;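 note: values are at about 110 or 230 µM; plate controls were DMSO wells for no effect and wells without enzyme for full effect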
How it was run: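 Enzyme activity of human lactate dehydrogenase 5 (2 nM; 0.06 mM NADH, 0.2 mM pyruvate, 5 min, RT) is measured via a resazurin/diaphorase fluorescence readout of residual NADH.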

SMILES | activity change
CC(C)(C)OC(=O)C[C@@H]1C/C=C\C[C@H](CC(=O)N[C@@H](CO)Cc2ccccc2)C(=O)N[C@H](Cc2ccccc2)COC1=O | inconclusive: -25.1%
Cc1ccc(S(=O)(=O)N2C(c3ccc(Cl)c(Cl)c3)CC=C(C(=O)O)C2c2ccc(Cl)cc2)cc1 (centres undefined) | inconclusive: -27.2%
Clc1ccc(OCc2nn3c(-c4ccco4)nnc3s2)cc1 | inactive: -3.6%
Cc1oc2cc(OS(C)(=O)=O)ccc2c(=O)c1Oc1ccccc1Br | inconclusive: -29.6%
C#CCOc1ccccc1CNC1CCN(Cc2ccccc2)CC1 | active: -30.7%
CC1=C(C(=O)c2ccccc2)C(c2cccc(Oc3ccc(Cl)cc3)c2)NC(=O)N1 (centres undefined) | inactive: 15.4%
CCN(c1ccccc1)S(=O)(=O)c1cc(NC(=O)CN2CCN(C)CC2)ccc1Cl | inconclusive: -28%
CCc1cc2c(C)cc(=O)oc2cc1OCC(=O)c1ccccc1 | inconclusive: -25.7%
COc1ccc(CN2CCN(C(=O)c3cccc4ccccc34)CC2)cc1OC | inconclusive: -27.6%
CCCCN1/C(=C/c2ccc3ccccc3[n+]2CC)Sc2ccccc21 | inconclusive: -29%
COc1ccc(CN2CCN(C(C)C(=O)N(C)Cc3cccc(F)c3)CC2)cc1OC (centres undefined) | active: -34.5%
CCOc1ccc(S(=O)(=O)N(CC(=O)Nc2cccc(C)c2)c2ccccc2)cc1 | active: -34.4%
CC(Oc1cc2oc(=O)c3c(c2cc1Cl)CCC3)C(=O)NCCN1CCOCC1 (centres undefined) | inconclusive: -28.1%
COc1cccc(CN2CCN(C(=O)c3cccc4ccccc34)CC2)c1OC | inconclusive: -26.2%
Cc1cc(O)c2c(C)c(CC(=O)NCc3cccc(Cl)c3)c(=O)oc2c1 | inconclusive: -26.3%
Cc1cc(C)c(S(=O)(=O)Nc2ccc(-c3ccc(N4CCCCCC4)nn3)cc2)cc1C | inactive: -2.13%
COc1ccc2c(C)nc(Nc3nc4ccccc4c(=O)[nH]3)nc2c1 | inactive: -8.78%
C=CCNC(=O)NC(=O)CN1CCC(Cc2ccccc2)CC1 | inactive: 3.13%
O=C(c1cccnc1)N1C2CCC1CC(O)(c1ccc(F)cc1)C2 (centres undefined) | inactive: 0.745%
Cc1ccc2nc(CC(C)(C)CC(=O)O)c[n+]([O-])c2c1 | inactive: -6.14%
O=C(O)CCNS(=O)(=O)c1cccc(F)c1 | inconclusive: -25.1%
CCCc1n(CC(O)COCc2ccccc2)c2ccccc2[n+]1C (centres undefined) | inconclusive: -27.1%
CCOc1ccc(/C=C/C(=O)c2cccc(Br)c2)cc1OC | inconclusive: -26.2%
FC(F)(F)c1ccc(Cl)c(N/N=C/c2cccc3ccccc23)c1 | inactive: 13.2%
